From publication PMC4336329 (PLoS ONE, 2015)
The campaign covered roughly 310,000 compounds. About 2,200 (0.71%) showed an effect of 50% or more. The effect is printed as a negative number. The list shows a part of the results.

What follows are compounds tested against human ether-à-go-go-related gene (hERG) potassium channel (human, UniProt Q12809) (assay: primary screen, population patch clamp on CHO cells stably expressing hERG).
human ether-à-go-go-related gene (hERG) potassium channel, sequence (Q12809 whole entry, looked up): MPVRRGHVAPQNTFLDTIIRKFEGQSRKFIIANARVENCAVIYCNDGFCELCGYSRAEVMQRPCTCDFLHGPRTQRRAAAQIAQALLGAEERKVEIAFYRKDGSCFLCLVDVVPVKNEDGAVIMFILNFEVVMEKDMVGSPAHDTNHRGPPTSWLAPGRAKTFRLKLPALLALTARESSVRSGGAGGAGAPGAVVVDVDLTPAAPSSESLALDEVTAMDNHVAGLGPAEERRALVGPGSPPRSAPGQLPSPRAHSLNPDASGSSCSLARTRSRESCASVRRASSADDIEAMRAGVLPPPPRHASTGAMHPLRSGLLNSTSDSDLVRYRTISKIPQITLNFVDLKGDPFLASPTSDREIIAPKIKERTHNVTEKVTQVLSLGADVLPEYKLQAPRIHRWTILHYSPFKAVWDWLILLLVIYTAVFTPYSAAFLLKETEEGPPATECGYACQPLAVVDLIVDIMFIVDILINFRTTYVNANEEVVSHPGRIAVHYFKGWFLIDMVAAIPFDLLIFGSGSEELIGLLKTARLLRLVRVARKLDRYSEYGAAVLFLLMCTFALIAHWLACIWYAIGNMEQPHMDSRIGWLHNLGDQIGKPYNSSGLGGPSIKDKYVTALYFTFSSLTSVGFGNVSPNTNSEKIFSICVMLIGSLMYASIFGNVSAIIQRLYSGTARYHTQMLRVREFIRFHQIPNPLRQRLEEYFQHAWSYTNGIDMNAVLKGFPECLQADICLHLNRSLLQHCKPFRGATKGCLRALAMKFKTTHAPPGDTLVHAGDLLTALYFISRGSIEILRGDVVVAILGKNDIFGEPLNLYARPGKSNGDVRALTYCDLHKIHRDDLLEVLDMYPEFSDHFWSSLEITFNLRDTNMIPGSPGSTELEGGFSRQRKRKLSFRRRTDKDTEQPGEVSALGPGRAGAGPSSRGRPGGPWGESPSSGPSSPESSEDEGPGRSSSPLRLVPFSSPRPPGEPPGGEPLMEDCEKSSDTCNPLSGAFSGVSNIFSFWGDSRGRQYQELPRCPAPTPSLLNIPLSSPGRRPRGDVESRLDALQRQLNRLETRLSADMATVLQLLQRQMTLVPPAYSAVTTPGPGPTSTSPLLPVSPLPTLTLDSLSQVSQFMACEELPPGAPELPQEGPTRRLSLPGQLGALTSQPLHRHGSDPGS

SMILES	hERG current change (%, negative = inhibition) at 1uM
Cc1ccc(/C=N/NC(=O)Cc2ccc(Cl)cc2)s1	6.18%
Cc1ccc(-c2nnc(-n3nc(C)cc3C)c3ccccc23)cc1	15.1%
COc1cc2c(cc1OC)C(=O)N(C)CC2	1.89%
CCC(C)NC(=S)NNC(=O)c1ccncc1 (stereo not drawn)	13.9%
Cc1nnc2ccc(-c3cccc(NC(=O)c4ccco4)c3)nn12	1.54%
O=c1nc(SCc2ccc(Cl)cc2)nc(-c2ccccc2)[nH]1	14.5%
CCC(=O)N1c2ccc(S(=O)(=O)CCC(=O)NCCC3=CCCCC3)cc2CC1C (stereo not drawn)	3.75%
COc1ccccc1C(=O)NCC(=O)NNc1ncnc(N)c1[N+](=O)[O-]	12.2%
CC(Oc1cc2oc(=O)c3c(c2cc1Cl)CCC3)C(=O)NCCN1CCOCC1 (stereo not drawn)	10.2%
CC(=O)c1c(N2CCOCC2)[nH]c(-c2ccccc2)nc1=S	16.3%
Cc1ccc(NCC(=O)N/N=C/c2ccc(C(=O)O)cc2)cc1	14.3%
O=C(O)C1CC=CCC1C(=O)Nc1ccc2c(c1)OCCO2 (stereo not drawn)	7%
CCC1(c2ccccc2)NC(=O)N(CC(=O)Nc2ccccc2N2CCCCC2)C1=O (stereo not drawn)	-4.28%
Cn1nc(C(=O)Nc2nc3ccccc3[nH]2)c2ccccc2c1=O	11.5%
O=C(NC1CCCC1)C(c1cccnc1)N(CCc1ccccc1)C(=O)c1ccco1 (stereo not drawn)	-16.7%
O=C(O)c1cccc(Nc2cc(Cl)c3nonc3c2[N+](=O)[O-])c1	6.49%
COc1ccccc1OCCn1cc(/C=C(\C#N)C(=O)NCc2cccs2)c2ccccc21	9.73%
C=CCn1c(=NC(=O)c2cc(-c3cccs3)nc3ccccc23)sc2cc(S(N)(=O)=O)ccc21	13.9%
CCN1C(=O)/C(=C2\C=Cc3ccccc3N2CC)OC1=S	12.5%
CCCn1nnnc1NC(=O)COc1ccc(Cl)c(C)c1	7.15%
O=C(Nc1cccc(O)c1)c1noc2c1CCc1ccccc1-2	-6.34%
CCc1nccn1CCC(=O)N1CCCC(N2CCN(c3ccccc3F)CC2)C1 (stereo not drawn)	9.56%
O=C(CCC(=O)N1CCN(c2ccccn2)CC1)Nc1nnc(C(F)(F)F)s1	1.38%
CC1CN(S(=O)(=O)c2cccc(C(=O)N(Cc3nnc(-c4ccccc4Cl)o3)C3CC3)c2)CC(C)O1 (stereo not drawn)	2.09%
